Assay results as given in PubChem BioAssay (Tox21).
Inconclusive results, whose numbers are uncertain, are shown with a selection of clear calls. For some assays here: No potency is given beside an inconclusive call; the fits are too rough. The source made the active and inactive calls. Calls come from the whole dose curve; as a rule, active = well fitted curve in the direction sought with a large enough effect in the repeat runs; inconclusive = weak or mixed curves; inactive = no such curve, though single readings can be large; an effect the other way counts as inactive or inconclusive.

Experiment: qHTS RealTime-Glo MT Cell Viability Assay in HepG2 cells - 32 hour (AID 1224877); note: nearly all actives have a fitted effect of over 55% in size
Settings: RealTime-Glo luminescence; series mostly up to 76.8 µM; activity change, negative = cytotoxic: at the top concentration
How it was run: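 Cell number in HepG2 cultures estimated from NanoLuc luminescence generated by metabolic reduction of a prosubstrate by living cells. The homogeneous, nonlytic format allowed repeated reads at 0, 8, 16, 24, 32 and 40 h of compound exposure.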
% is set by controls: 0 for no effect and ±100 for the full control effect; tags give direction and shape of the fitted curve.

Row | SMILES | activity change, negative = cytotoxic | Potency
1 | CN(C)CCN(Cc1ccc(Cl)cc1)c1ccccn1 | inactive: 2.85% [at 35.3 µM] | –
2 | FC(F)(F)C(Cl)Br (stereo not drawn) | – | inactive
3 | OCCN1C[C@H](O)[C@@H](O)[C@H](O)[C@H]1CO | inactive: 0.101% [at 35.3 µM] | –

Experiment: A CellTox Green Cytotoxicity Assay to monitor cytotoxicity in HepG2 cells - 24 hour (AID 1224878); note: nearly all actives have a fitted effect of over 45% in size; note: potency is the fitted concentration of half-maximal effect
Settings: CellTox Green fluorescence; series mostly up to 76.8 µM; cytotoxicity: at the top concentration
How it was run: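 Cytotoxicity was tracked as dead-cell DNA fluorescence in HepG2 cells treated with test compounds at 37 C; each time-point value comes from one kinetic series spanning 0, 8, 16, 24, 32 and 40 h.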

Row | SMILES | cytotoxicity | Potency
4 | CSc1ccc(C=O)cc1 | inactive: -1.81% | –
5 | NCCN1CCOCC1 | inactive: 0.271% | –
6 | C[n+]1ccn(CCO)c1 | – | inconclusive [activator, partial curve, poor fit]
7 | O=C[O][Al]([O]C=O)[O]C=O | inactive: -14% | –
8 | c1ccc(CN(Cc2ccccc2)Cc2ccccc2)cc1 | – | inconclusive [activator, partial curve]
9 | NC(=O)COCCN1CCN(C(c2ccccc2)c2ccc(Cl)cc2)CC1 (stereo not drawn) | inactive: 2.74% [at 35.3 µM] | –
10 | CN1C(=O)N(C)C(O)C1O (stereo not drawn) | inactive: -10% | –
11 | O=C1OC(=O)c2ccccc21 | inactive: -1.05% | –
12 | CCCCNc1ccc(NCCCC)c2c1C(=O)c1ccccc1C2=O | inactive: -4.17% [at 15.8 µM] | –
13 | CCC(=O)O[C@]1(C(=O)COC)[C@@H](C)C[C@H]2[C@@H]3CCC4=CC(=O)C=C[C@]4(C)C3(F)[C@@H](O)C[C@@]21C (stereo partly drawn) | inactive: -10.1% [at 35.3 µM] | –
14 | CCOC=C(C(=O)OCC)C(=O)OCC | inactive: 0.428% | –
15 | CCCOCCOCCO | inactive: 0.916% | –
16 | C[C@@H](N)C(=O)O | inactive: 9.67% [at 35.3 µM] | –
17 | CCC(=O)/C=C/c1ccc(OC)cc1 | inactive: 3.66% | –
18 | Cc1ccccc1S(=O)(=O)O | inactive: 2.58% | –
19 | O=C(O)C1=NN(c2ccc(S(=O)(=O)O)cc2)C(=O)C1 | – | inactive
20 | COc1ccc(NC(C)=O)cc1 | inactive: -3.14% | –
21 | CCc1cccc(C)c1N(C(=O)C(=O)O)C(C)COC (stereo not drawn) | inactive: 3.02% | –

Row | SMILES | cytotoxicity | Potency
22 | CC(N)C(=O)OC(C)(C)Cc1ccc(Cl)cc1 (stereo not drawn) | inactive: 0.493% [at 35.3 µM] | –
23 | C=CC(=O)OCCCCCCCC | inactive: -5.77% | –
24 | O=S(=O)(O)C(F)(F)F | inactive: 6.57% | –
25 | C/C(=C\c1ccc(C(=O)O)cc1)c1ccc2c(c1)C(C)(C)CCC2(C)C | inactive: 18.6% [at 35.3 µM] | –
26 | NCC1CCC(C(=O)Oc2ccc(CCC(=O)O)cc2)CC1 (stereo not drawn) | inactive: -23.3% [at 35.3 µM] | –
27 | Nc1ccc(C(=O)OCCCOC(=O)c2ccc(N)cc2)cc1 | inactive: 4.46% | –
28 | C=CCc1ccc(O)c(OC)c1 | – | inconclusive [activator, single point]
29 | CC1CCC(=O)C1=O (stereo not drawn) | inactive: 10.4% | –
30 | CC(C)(CO)[N+](=O)[O-] | inactive: -6.1% | –
31 | O=C(c1ccccc1)c1ccc2n1CCC2C(=O)O (stereo not drawn) | inactive: -11.7% [at 35.3 µM] | –
32 | O=c1[nH]nnc2ccccc12 | – | inactive
33 | COC(=O)c1cccnc1 | – | inactive
34 | CC(Cc1ccccc1)(NC(=O)CN)c1ccccc1 (stereo not drawn) | inactive: 10% [at 35.3 µM] | –
35 | Nc1ccccc1[N+](=O)[O-] | – | inactive
36 | CC(=O)Nc1ccccc1 | – | inactive
37 | Oc1c(Cl)ccc(Cl)c1Cl | – | inactive
38 | COc1c(N2CCNC(C)C2)c(F)cc2c(=O)c(C(=O)O)cn(C3CC3)c12 (stereo not drawn) | inactive: -9.66% [at 35.3 µM] | –
